Read counts are not given, so values of variants with three or more changes are uncertain.
B1: LINE1-mini (parent)
chain: GGCAGAGCUCAACACAGCGUGGCAAAGUGGCUGUGGCUAGACUGCC

Variants of: B1
Assay: self-cleavage, relative activity (ratio to wild type); higher = more cleavage; in vitro, sequencing; the parent is a self-cleaving ribozyme

Row | Variant | self-cleavage
1 | GCCAGAGCUCAACAAAGCGUGGCAUAGUGGCUGUGGCUAGACUGCC | 0.11
2 | GCCAGAGCUCAACAGAGCGUGGCAAAGUGGCAGUGGCUAGACUGCC | 0.02
3 | GCCAGAGCUCAAGACAGCGUGGCAAAGUGGGUGUGCCUAGACUGCC | 0.06
4 | GCCAGAGCUCAACACAGAGUGGCAAAGUGGCUGUGGCUCGACUGCC | 0.05
5 | GCCAGAGCUUAACACAGGGUGGCGAAGUGGCUGUGGCUAGCCUGCC | 0.01
6 | GCCAGAGCUCAACACAGCGUGGUAAAGUGGAUGUGGCUAGACUGCC | 0
7 | GCCAGAGCUCAAAACAUCGUGACAAAGUGUCUGUGGCUAGACUGCC | 0.1
8 | GCCAGAGCUCAAAACAGCGUGGCAAACUGGCUCCGGCUAGACUGCC | 0.05
9 | GCCAGAGCUCAACACAGCGUGGGUAAGUGGCUCUGGCUAGACUACC | 0.01
10 | GCCAGAGCUCAAUACCGCGUGGCAAAGUGGCUGUGGCUAGACUGCC | 0.15
11 | GCCAGAGCUGAAAACAGAGUGGCAAAGUGGCUGUGGCUAGACUGCC | 0.01
12 | GCCAGAGUUCAACACAGCGUGGCAAAGUGGCUGUGCCUAGACUGCC | 0.12
13 | GCCAGAGCUAAAUACAGCGUGACAAAGUGGCAGUGGCUCGACUGCC | 0.01
14 | GCCAGAGCUCAAAACAGCGUGGCAAGAUGGCUGUGGCUAGACAGCC | 0.03
15 | GCCAAAGAUCAACACAGAGUGGCACAGUGGCUGUGGCUAGACUGCC | 0.09
16 | GCCAGAGCUCAACACAGCGUGGCAAAGUGGGUGCGGAUAGACUGCC | 0.1
17 | GCCAGAGCUAAACUCAGCGUGGCCAAGUGGGUGUGGCUAUACUGCC | 0.01
18 | GCCAGAGCUCAAUACAGGGUUGCAAAGUGGCUGUGGCCAGACUGAG | 0
19 | GCCAGAGCUCAACAGAGUGUGGCAAACUGGCUUUGGCUAGACUGCC | 0.01

Row | Variant | self-cleavage
20 | GCCAGAGCUCAACACAGCGUGGGAGAGUGGCUGGGGCUAGACUGCC | 0.02
21 | GCCAGAGCUCAACACAGCGUGGCAAAGUGGUUGUGGAUAGACUGAC | 0.04
22 | GCCAGAGCUCAACACAGCGUGGUAAAGUGGCUUUGGCUAGACUGCC | 0.06
23 | GCCAGAGCUCAACAUAGCGUGGCAAAGUGGCUGUGGCUAGAAUGCC | 0.06
24 | GCCAGAGCUCAACACAGGGUGGCAAAGUGGCUGAGGCUAGACUGCC | 0.07
25 | GCCAGAGCUCAACACAGAGUGGCGAAGUGGCUGUGGCUAGACUGCC | 0.06
26 | GCCAGAGCUCAACACAGCGUGGAAUAGUGGCUAUGGCUAGACUGCC | 0.02
27 | GCCAGAGCUUAACACAGCGUGGCAAAGUGGCGGUGGCUAGACUGCC | 0.02
28 | GCCAGAGCUAAACACAGCGUGUCAAAGUGGCUGUUGCUAGAAUGCC | 0
29 | GCCAGAGCUUAACACAGCGUGGCGAAGUGGCUGUGGCUAGACUGCC | 0.05
30 | GCCAGAGCUCAAGACGGCGUAUCAAAGUGGCUGUGGCUAGACUGCC | 0.09
31 | GCCAGAGCUGAACACAGCGUGGCAAAGUGGCUGUGGCUAGACUCCA | 0
32 | GCCAGAGCUAAACACAGAGUGGCAAAGUGGCAGUGGCUAGACUGAG | 0
33 | GCCAGAGCUGAAAACAGCGUGGCAAAGUGUCUGUGGCUAGACUGCC | 0.03
34 | GCCAAGGCUCAACACAGCGUGGCUAAGAGGCUGUGGCUAGACUGCC | 0.03
35 | GCCAGAGCUUAACACGGCGUGGCAAAGUGGCUGCGGCUAGACUGCC | 0.04
36 | GCCAGAGCUGAACACAGCAUGGCAAAGUGGCUGUAGCUAGGCUGCC | 0.01
37 | GCCAGAGCUCAACAGAGCGUGGCAGAGUGGCUGAGGCUAGACUGCC | 0.01
38 | GCCAGAGCUCAACACAGCGUGGCAAAGUGGCUGUGGAUAGACAGCC | 0.45

Row | Variant | self-cleavage
39 | GCCAGAGCUCAACAGAGCGUGGCAAAGUGGUUGUGGCUAGACUGCC | 0.07
40 | GCCAGAGCUGAACUCAGCGUGGCAAAGUGGCUAUGGCUAGACUGCC | 0.01
41 | GCCAGAGCUCAACACAGUGUCGCAAAGUGGCAGUGGCUAUACUGAC | 0.08
42 | GCCAGAGCUCAACACAGUAUGGCAAAGUUGCUGUGCCUAGAUUGCC | 0.02
43 | GCCAGAGCUCAACACAGCGUGGCAAAGUGGAUGUGGCUUGACUGCC | 0.08
44 | GCCAGAGCUCAACAUAGCGUCGCAAAGUGGCUAUGGCUAGACUUCC | 0.26
45 | GCCAGAGCUCAACAUAGAGUGGCAAAGUGGCUGUGGCUAGACUGCC | 0.01
46 | GCCAGAGCUCAAGACAGCGCGGCAAAGUGGCUGUGGCUAGACUGCC | 0.24
47 | GCCAGAGCUCAACACAGCGUGGGAAAGUGUCUAUGGCUAGACUGCC | 0.09
48 | GCCAGAGUUCAACACAGCGUGGCAAAGUGGCUGCGGCUAGACUAUC | 0.31
49 | GCCAGAGCUAAACACAGCGUGGCAAAGUGGCUGUGGCUCGACUGCC | 0.02
50 | GCCAGAGUUCAACACAGCAUGGCAAAGUGGCUGUGGCUAGACUGCC | 0.18
51 | GCCAGAGCUCAACAUAGUGUGGCAAAGUGGCUGUAGCUAGACUGCC | 0.09
52 | GCCAGAGCUCAACACAGCGUGGAAAAGUGGCUGUGCCACGACUGCC | 0.01
53 | GCCAGAGCUCAACAAAGCGUGGCAAAGUGGCUGUGGCUAGAUUGCC | 0.06
54 | GCCAGAGCUUAACACAACGUGGUAAAGUGGCUGUGGCUAGACUGCC | 0.05
55 | GCCAGAGCUAACCACAGCGUGGCAAAGUGGCUGUGGCUUCACUGCC | 0.01
56 | GCCAGAGUUCAACACAGCGUGGCAAAGUGGCUUUGGCUACACUGCC | 0.06

Reference: the RNAGym collection of RNA variant scans (doi:10.7554/elife.90254)
